A collection of fitness landscapes (doi:10.1016/j.celrep.2020.107928)
The full ranking holds about 81,000 sequences; the median of “one-hybrid fitness for binding NBS DNA” is about -0.1, and the highest 2% start at about 0.36. Some of the results follow.

B1: Caulobacter ParB omega fusion; a variant is named by its letters at X, in order, B8GW30 (parent)
chain: MESVVVGEPGMSEGRRGLGRGLSALLGEVDAAPAQAPGEQLGGSREAPIEILQRNPDQPRRTFREEDLEDLSNSIREKGVLQPILVRPSPDTAGEYQIVAGERAWRAAQRAGLKTVPIMVRELDDLAVLEIGIIENVQRADLNVLEEALSYKVLMEKFERTQENIAQTIGKSXSHVANXMRLLXLPDEVQSYLVSGELTAXHARAIAAAADPVALAKQIIEGGLSVRETEALARKAPNLSAGKSKGGRPPRVKDTDTQALESDLSSVLGLDVSIDHRGSTGTLTITYATLEQLDDLCNRLTRGI

Variants of: B1
Assay: one-hybrid fitness for binding NBS DNA (the Noc-binding site; scaled: cognate 1, non-cognate 0); higher = stronger binding
Conditions: with NBS DNA site
In short: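 Caulobacter ParB libraries with four specificity codons randomised were screened by bacterial one-hybrid selection in the E. coli USO strain, using a HIS3 reporter whose site lies 19 bp from the promoter. Selection ran for 48 hours at 37°C on M9 lacking histidine, with 0.1 mM IPTG and 5 mM 3-AT. Plasmids were Illumina-sequenced before and after selection, three replicate libraries were pooled, and variants with under 10 reads were dropped. Fitness is the log change in each variant's read ratio to wild type, rescaled against the cognate and non-cognate sites.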

Variant | one-hybrid fitness for binding NBS DNA
FPGG | ≤ 0.2
PHYA | ≤ 0.2
YNCG | ≤ 0.2
VHCS | ≤ 0.2
NLFQ | ≤ 0.2
DWHR | ≤ 0.2
FRHW | ≤ 0.2
VMTR | ≤ 0.2
VDSG | ≤ 0.2
SVHT | ≤ 0.2
RIDT | ≤ 0.2
SPHD | ≤ 0.2
SLNM | ≤ 0.2
ACNC | ≤ 0.2
ICGT | ≤ 0.2
CYTG | ≤ 0.2
GVHT | ≤ 0.2
FKSS | ≤ 0.2
LNSW | ≤ 0.2
LQVC | ≤ 0.2
EPQM | ≤ 0.2
TSWQ | ≤ 0.2
PESC | ≤ 0.2
HYFS | ≤ 0.2

Variant | one-hybrid fitness for binding NBS DNA
RFKN | ≤ 0.2
HTST | ≤ 0.2
FCAS | ≤ 0.2
QQCG | ≤ 0.2
QNQT | ≤ 0.2
LVAM | ≤ 0.2
CVEC | ≤ 0.2
VDWK | ≤ 0.2
TIIY | ≤ 0.2
NMPV | ≤ 0.2
VARH | ≤ 0.2
PMNL | ≤ 0.2
GSWL | ≤ 0.2
NWEG | ≤ 0.2
MATL | ≤ 0.2
IDNM | ≤ 0.2
YALA | ≤ 0.2
CPRG | ≤ 0.2
SVAC | ≤ 0.2
QTDE | ≤ 0.2
MRHY | ≤ 0.2
QVHI | ≤ 0.2
PSQM | ≤ 0.2
REES | ≤ 0.2

Variant | one-hybrid fitness for binding NBS DNA
TEPG | ≤ 0.2
SVTT | ≤ 0.2
PQIV | ≤ 0.2
PSSW | ≤ 0.2
DLSC | ≤ 0.2
NPLR | ≤ 0.2
QASM | ≤ 0.2
LYSM | ≤ 0.2
QVGS | 0.299
SIAS | ≤ 0.2
RGHT | ≤ 0.2
RDGG | ≤ 0.2
HTKG | ≤ 0.2
VYNC | ≤ 0.2
SMPD | ≤ 0.2
LSGH | ≤ 0.2
ILTS | ≤ 0.2
QVQY | ≤ 0.2
RQET | 0.214
NEPW | ≤ 0.2
RMLH | ≤ 0.2
VRPF | ≤ 0.2
LSNS | ≤ 0.2
PQYG | ≤ 0.2

Variant | one-hybrid fitness for binding NBS DNA
VPPV | ≤ 0.2
FYRG | ≤ 0.2
HDFT | ≤ 0.2
SMRE | ≤ 0.2
LASD | ≤ 0.2
ILST | ≤ 0.2
PFCS | ≤ 0.2
QQHK | ≤ 0.2
WTKI | ≤ 0.2
TRLR | 0.276
SFMF | ≤ 0.2
VKTF | ≤ 0.2
HAVD | ≤ 0.2
YEKG | ≤ 0.2
YCHM | ≤ 0.2
RPIN | ≤ 0.2
KVAN | ≤ 0.2
AIKA | ≤ 0.2
KAME | ≤ 0.2
YKLS | ≤ 0.2
KCWS | ≤ 0.2
FAPG | ≤ 0.2
ALYT | ≤ 0.2
HGVM | ≤ 0.2

Variant | one-hybrid fitness for binding NBS DNA
MGGF | ≤ 0.2
DTKT | ≤ 0.2
MDNL | ≤ 0.2
NYRA | ≤ 0.2
PGQG | ≤ 0.2
HMLV | ≤ 0.2
ETSL | ≤ 0.2
TLVF | ≤ 0.2
RMVF | ≤ 0.2
KISC | ≤ 0.2
TNHR | ≤ 0.2
MLRL | ≤ 0.2
LCSP | ≤ 0.2
AEKS | ≤ 0.2
RNCV | ≤ 0.2
CCKY | ≤ 0.2
CNHT | ≤ 0.2
QPYP | ≤ 0.2
WPPM | ≤ 0.2
SGWW | ≤ 0.2
WTNS | ≤ 0.2
SACR | ≤ 0.2
KAKL | ≤ 0.2
SRGR | ≤ 0.2

Variant | one-hybrid fitness for binding NBS DNA
KRKV | 0.302
VNCI | ≤ 0.2
WLSR | ≤ 0.2
TSHL | ≤ 0.2
PETR | ≤ 0.2
FLCR | ≤ 0.2
TRFW | ≤ 0.2
PPIP | ≤ 0.2
FHDS | ≤ 0.2
EGGL | ≤ 0.2
CLLV | ≤ 0.2
WLQT | ≤ 0.2
SYQQ | ≤ 0.2
QMMT | 0.378
ANPF | ≤ 0.2
YCWG | ≤ 0.2
YRLG | ≤ 0.2
RVRH | 0.304
RVSW | ≤ 0.2
HCTP | ≤ 0.2
CQHY | ≤ 0.2
RKYT | 0.643
LLVD | ≤ 0.2
RAAA | ≤ 0.2

Variant | one-hybrid fitness for binding NBS DNA
RHSQ | ≤ 0.2
RISI | ≤ 0.2
KNGR | ≤ 0.2
GLVS | ≤ 0.2
DHCK | ≤ 0.2
VQLN | ≤ 0.2
IEPR | 0.427
AAPL | ≤ 0.2
KPIT | ≤ 0.2
DKVQ | ≤ 0.2
GGLG | ≤ 0.2
HLSF | ≤ 0.2
VPFF | ≤ 0.2
MVHW | ≤ 0.2
TDAA | ≤ 0.2
PQFC | ≤ 0.2
HGDN | ≤ 0.2
LHWV | ≤ 0.2
QREV | ≤ 0.2
QFCS | ≤ 0.2
RILK | ≤ 0.2
SADK | ≤ 0.2
AEYA | ≤ 0.2
LSSW | ≤ 0.2

Variant | one-hybrid fitness for binding NBS DNA
SEQC | ≤ 0.2
QTPW | ≤ 0.2
TIMR | ≤ 0.2
NRQT | ≤ 0.2
NEWS | ≤ 0.2
EPGN | ≤ 0.2
FLDS | ≤ 0.2
TSRV | ≤ 0.2
ISIS | ≤ 0.2
LMHC | ≤ 0.2
FTLR | ≤ 0.2
YGDC | ≤ 0.2
SYAT | ≤ 0.2
AVVD | ≤ 0.2
PKQG | ≤ 0.2
ALDQ | ≤ 0.2
NRRV | ≤ 0.2
SSQW | ≤ 0.2
YKRL | ≤ 0.2
WWPY | ≤ 0.2
HLTW | ≤ 0.2
YVWI | ≤ 0.2
QNDR | ≤ 0.2
DCRN | ≤ 0.2

Variant | one-hybrid fitness for binding NBS DNA
WAAG | ≤ 0.2
LPSS | ≤ 0.2
HRLR | 0.213
HGLE | ≤ 0.2
WCKY | ≤ 0.2
PTCG | ≤ 0.2
PDKG | ≤ 0.2
TDAY | ≤ 0.2
VQCG | ≤ 0.2
HYST | ≤ 0.2
SNCS | ≤ 0.2
TWLR | ≤ 0.2
WKSM | ≤ 0.2
EYGF | ≤ 0.2
IDNA | ≤ 0.2
LGTG | ≤ 0.2
RKHD | ≤ 0.2
LIDR | ≤ 0.2
DTFR | ≤ 0.2
QKNR | 0.747
IAPT | ≤ 0.2
SQNG | ≤ 0.2
QYTT | 0.401
FLLM | ≤ 0.2

Variant | one-hybrid fitness for binding NBS DNA
AWHR | ≤ 0.2
TLYC | ≤ 0.2
QDNS | ≤ 0.2
LYAT | ≤ 0.2
DGVI | ≤ 0.2
QETH | ≤ 0.2
DPNF | ≤ 0.2
SHPW | ≤ 0.2
RTTF | ≤ 0.2
QPYL | ≤ 0.2
TEVL | ≤ 0.2
LFTI | ≤ 0.2
RWHQ | ≤ 0.2
ENGR | ≤ 0.2
NSKG | ≤ 0.2
NAWS | ≤ 0.2
CRKL | ≤ 0.2
SRVG | ≤ 0.2
ITRY | ≤ 0.2
DLNS | ≤ 0.2
RICG | ≤ 0.2
IVTR | ≤ 0.2
YPHH | ≤ 0.2
IFRT | ≤ 0.2

Variant | one-hybrid fitness for binding NBS DNA
PEKV | ≤ 0.2
YNNH | ≤ 0.2
SVQR | ≤ 0.2
ITAL | ≤ 0.2
RQHI | ≤ 0.2
KSHV | ≤ 0.2
ISYR | ≤ 0.2
CYLL | ≤ 0.2
CRPK | ≤ 0.2
TTKF | ≤ 0.2
RRGA | 0.664
MIVW | ≤ 0.2
AAQC | ≤ 0.2
KARS | ≤ 0.2
VCSH | ≤ 0.2
MWYC | ≤ 0.2
RDIW | ≤ 0.2
AQQL | ≤ 0.2
PRWT | ≤ 0.2
MRHG | ≤ 0.2
KIPN | ≤ 0.2
PKEC | ≤ 0.2
GCTP | ≤ 0.2
GKLG | ≤ 0.2

Variant | one-hybrid fitness for binding NBS DNA
PDQR | ≤ 0.2
RCWY | ≤ 0.2
LLAW | ≤ 0.2
CDTF | ≤ 0.2
DALL | ≤ 0.2
FSDI | ≤ 0.2
WFAS | ≤ 0.2
NSRN | ≤ 0.2
CPPT | ≤ 0.2
LFLC | ≤ 0.2
PTKM | ≤ 0.2
RTFS | 0.339
WKLD | ≤ 0.2
YNRF | ≤ 0.2
THTL | ≤ 0.2
CFPH | ≤ 0.2
RYLM | ≤ 0.2
DQCG | ≤ 0.2
FLFI | ≤ 0.2
GKSY | ≤ 0.2
TASL | ≤ 0.2
QMMY | ≤ 0.2
GFLW | ≤ 0.2
RPVM | ≤ 0.2

Variant | one-hybrid fitness for binding NBS DNA
ATMF | ≤ 0.2
THEY | ≤ 0.2
TRQT | 0.327
SSDS | ≤ 0.2
CVGK | ≤ 0.2
GSLD | ≤ 0.2
AMWC | ≤ 0.2
FMNG | ≤ 0.2
LGLR | ≤ 0.2
PWTW | ≤ 0.2
WVNC | ≤ 0.2
VSRW | ≤ 0.2
ASTS | ≤ 0.2
QDTK | ≤ 0.2
TPFC | ≤ 0.2
AIRY | ≤ 0.2
TWES | ≤ 0.2
MKAC | ≤ 0.2
